# From the supplement of paper PMC3334620
# The full ranking holds about 33,000 sequences; the median of “E-score (-0.5 to 0.5)” is about -0.016, and the highest 2% start at about 0.32. Some of the results follow.
# Target: T1, Stp1 (UniProt B3LFK1)
# T1 sequence: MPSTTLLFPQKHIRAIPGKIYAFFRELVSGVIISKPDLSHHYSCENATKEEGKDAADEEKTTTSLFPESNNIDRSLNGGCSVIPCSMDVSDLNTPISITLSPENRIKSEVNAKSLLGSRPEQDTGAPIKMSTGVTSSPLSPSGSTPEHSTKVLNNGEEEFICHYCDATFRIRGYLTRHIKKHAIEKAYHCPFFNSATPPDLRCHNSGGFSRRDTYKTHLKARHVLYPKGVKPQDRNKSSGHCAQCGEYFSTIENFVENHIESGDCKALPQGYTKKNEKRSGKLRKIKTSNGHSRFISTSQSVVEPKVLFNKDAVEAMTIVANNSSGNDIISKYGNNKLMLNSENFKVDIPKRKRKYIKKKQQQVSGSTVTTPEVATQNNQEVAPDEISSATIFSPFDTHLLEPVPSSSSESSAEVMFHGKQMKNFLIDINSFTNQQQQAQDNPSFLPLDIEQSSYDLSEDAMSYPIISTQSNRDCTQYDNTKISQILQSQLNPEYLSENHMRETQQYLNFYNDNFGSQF
# Assay: PBM E-score (8-mer binding enrichment) (E-score (-0.5 to 0.5)); higher = stronger / more preferred TF binding; most listed sequences are background and not binding sites
# Conditions: protein concentration: 200 nM; construct: GST-full length
# Summary of the method: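 Yeast transcription factors, full-length or as DNA-binding domains, were expressed with a GST tag using PURExpress in vitro transcription/translation. At about 100-200 nM they were applied to universal all-10-mer Agilent arrays, double-stranded by primer extension on fresh or once-stripped slides. Fluorescent anti-GST detected bound protein, and masliner normalised the scans. E-scores for ungapped eight-base words, pooled with reverse complements, came from the Universal PBM Analysis Suite.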
row,Sequence,PBM E-score
1,ATCGTCAT,0.0661
2,AGTAAACC,-0.191
3,CGACGTCA,-0.163
4,CAATTAAA,0.156
5,CGCTTGCC,0.0655
6,CACGGACG,0.164
7,TTAGAGAA,-0.248
8,CAGGATCC,-0.0149
9,AATTTCCT,-0.0217
10,AGACTATA,0.152
11,GAACCCCC,-0.372
12,AATAGTCC,-0.165
13,ATGCCTCC,-0.0159
14,CCCTCAGA,-0.22
15,GGGAGGAC,-0.15
16,ACCGAAGT,-0.0602
17,CGGACACA,0.0654
18,GCAACAAC,0.049
19,CGAAATAA,0.206
20,TCACTTCA,-0.024
21,ATGCAATA,0.04
22,CGAATTCC,0.0428
23,AGTCCCAC,-0.312
24,AAAGCTTA,0.0842
25,ACAACCAA,0.0505

row,Sequence,PBM E-score
1,GAGCATAC,-0.0997
2,AGCATCCT,-0.245
3,AGACATCT,-0.0861
4,GATTCCCA,-0.0824
5,AAGCGTTC,-0.222
6,ATCTCCAC,-0.0548
7,AATAAAAT,0.199
8,GCCTGGCA,-0.25
9,GGTGTAGA,-0.171
10,AGCACCGG,-0.188
11,ACTCGTTA,-0.159
12,AAACTAAC,0.155
13,AAGACACC,-0.0764
14,ATTAGTCC,0.128
15,ACAAATAT,0.16
16,GGAGCGTA,-0.174
17,AGACAACA,0.0979
18,TCTCTCAA,0.215
19,TCAGCGCA,-0.183
20,GGCGGTAC,0.0425
21,GATGCGCA,0.0121
22,ATGTGTGG,0.0153
23,AAGAGGAA,0.059
24,AGGTTTGA,-0.138
25,ACATATTA,0.198

row,Sequence,PBM E-score
1,CTGGTAAG,0.0996
2,GATCGTAA,0.0502
3,AAAAGATG,0.132
4,CAGAACCA,-0.132
5,CCGAGATC,-0.175
6,ATTACAGC,-0.0296
7,CGCCAGAG,-0.127
8,CTGCAAAA,0.0123
9,AACGCGAT,-0.0792
10,ATTAGAAT,-0.0124
11,ACGCATTG,0.0406
12,GACGTCGC,-0.252
13,CATGGGCC,-0.107
14,AAAACCTT,-0.0164
15,GACAAGAA,0.137
16,CAAGGTTC,-0.124
17,CCCAACTC,-0.0439
18,GTCCCGAC,-0.187
19,ACCGACGA,-0.0695
20,GTGCTGAA,-0.117
21,GGAAGTAC,0.0967
22,ATATCGGC,0.0169
23,CTATCCTC,-0.165
24,TACCAGTA,0.155
25,ATATATCC,0.285

row,Sequence,PBM E-score
1,CCCTTCCG,-0.179
2,AGGTAGAT,-0.14
3,ACCGCGGT,-0.3
4,GGGTGGAA,-0.31
5,GGTCGTAC,-0.229
6,GAAGACTC,-0.121
7,TATTAAAA,0.279
8,CATTAGGA,-0.00507
9,ACTGTTAA,0.154
10,CTCTAGAG,-0.0135
11,ACAGCTCT,-0.306
12,AACAGTAA,0.00958
13,AATCTGCG,0.215
14,ACTAGAGT,-0.167
15,AAAAAGTA,0.135
16,CCCTTTAC,0.0337
17,ATCGAGGC,-0.0646
18,AGGAAAAG,0.214
19,CCCTCTGA,-0.105
20,GTCTGTCA,-0.00712
21,GTTCAGCA,-0.137
22,CATCGTCA,0.0788
23,GTGGGCCA,0.0412
24,CAACGATG,-0.0103
25,GATGACAC,-0.0173

row,Sequence,PBM E-score
1,ACGCCCGC,-0.0205
2,AACTTTCG,-0.0408
3,AATGGATA,-0.015
4,AGATGTAT,0.00406
5,ACAGAATC,-0.135
6,CACCTGCC,0.055
7,AATCGCGG,-0.0359
8,GGTCCAAC,-0.156
9,GATGTACA,0.0467
10,GACTGAAC,-0.24
11,CGTCAGGA,0.0248
12,AAAGGAGT,-0.0421
13,ACCTGGTG,-0.147
14,ACACGTGA,0.0836
15,CTAGGTAA,-0.139
16,TAACTCGA,0.17
17,AACTTGTC,-0.0164
18,CAGTAGCG,-0.129
19,ACCGCTAG,-0.186
20,AAACGAGG,0.0897
21,ACTGCGAC,-0.101
22,TATATTAA,0.278
23,AGTGCTCA,-0.198
24,ACTTTAAA,0.155
25,AGACGTGG,0.0144

row,Sequence,PBM E-score
1,AAAGCGGC,0.366
2,CGAAGTTA,-0.0277
3,CTCTCTTA,-0.0244
4,CCTCACCG,0.0522
5,CCCCCGAC,-0.275
6,CGAATAAC,-0.0575
7,ACCGAGGT,-0.131
8,GAGCCAGC,-0.17
9,GTGTTCAA,0.0543
10,AATCCTGT,-0.037
11,AAGTCCTC,-0.156
12,CAAGCTCA,-0.182
13,AGCGGTGG,-0.205
14,CGATTATA,0.169
15,CGTTATTC,0.0208
16,GCTGAGAA,-0.0948
17,AGCATGTA,-0.192
18,CTTATGAC,-0.046
19,GAATTCGA,0.027
20,TATGAGCA,0.045
21,ATAGAGAG,-0.181
22,TGTTGCAA,0.248
23,ACTTTTCC,0.0971
24,GGTATACC,-0.0752
25,CACCGAGC,0.0864

row,Sequence,PBM E-score
1,CCATGCAC,-0.107
2,GGGGACCA,-0.23
3,AGTGTTCC,0.0545
4,CCCGCGAC,-0.0506
5,AGTTAGCG,0.0166
6,ATATAAAT,0.235
7,CAGTGACA,-0.155
8,AACCCAAA,0.12
9,ACTAGCTG,-0.217
10,CAAGCCCC,-0.282
11,GAGCGGCA,0.44
12,GGACTCAA,-0.152
13,ATAACGAG,0.0512
14,GGAACGCA,-0.0347
15,CGTTACAA,0.0773
16,GTAACAGA,0.174
17,CACTTAGA,0.0997
18,AACTGTCC,-0.187
19,CACGTGGA,0.0843
20,CGCCCTAG,0.147
21,ATGACGCG,0.0508
22,CTCACTTA,-0.0129
